Test results reported in article PMC5343488, “Epilepsy and intellectual disability linked protein Shrm4 interaction with GABABRs shapes inhibitory neurotransmission” (Nature Communications, 2017).
Numbering of substitutions follows the chain as printed. These are yes or no findings as the source states them, for the method shown. In cells and extracts the contact can be indirect. Some results given as binding are weak or reduced against the parent protein; the word gives no strength. For some assays here: Tags and fused reporters may be left off the sequences shown. Values belong to the molecule of their own block, whether it stands above or below them.

Key:
[1] = target: GABAAR δ subunit, endogenous in brain (rat (endogenous in brain)) (UniProt P18506); assay: co-IP; adult rat brain extracts (50 mM TRIS-HCl, 200 mM NaCl, 1 mM EDTA, 1% NP40, 1% Triton X-100, pH 7.4); antibody (anti-Shrm4 or anti-GABAAR δ) at 4 °C overnight, protein A-agarose, western blot
[2] = target: T1, GST-PDZ (Shrm4-PDZ domain, aa 1–91) (human, UniProt Q9ULL8 1-91); assay: pull-down; GST fusion proteins of the Shrm4-PDZ domain on extracts of 18DIV rat cultured hippocampal neurons or rat brain; western blot; only the target purified
T1 construct: Shrm4 (Shroom4), encoded by KIAA1202, PDZ domain, aa 1-91; in pGEX-4T-1, which should put GST at the N-terminus; source: E. coli BL21, purified using standard procedures
T1 sequence (looked up): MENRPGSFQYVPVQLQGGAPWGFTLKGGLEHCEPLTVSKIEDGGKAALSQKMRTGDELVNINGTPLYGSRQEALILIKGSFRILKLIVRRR

[3] = target: T2, mutant GST-PDZ (AA) (Shrm4-PDZ domain K26G27/AA) (human) (UniProt Q9ULL8); assay: as above
T2 sequence: T1 sequence (looked up) with K26A, G27A

[4] = target: T3, Shrm4, endogenous in rat brain (rat (endogenous in brain)) (UniProt F1LVL5); assay: co-IP; adult rat brain extracts (50 mM TRIS-HCl, 200 mM NaCl, 1 mM EDTA, 1% NP40, 1% Triton X-100, pH 7.4); antibody (anti-Shrm4 or anti-GABAAR δ) at 4 °C overnight, protein A-agarose, western blot
T3 sequence: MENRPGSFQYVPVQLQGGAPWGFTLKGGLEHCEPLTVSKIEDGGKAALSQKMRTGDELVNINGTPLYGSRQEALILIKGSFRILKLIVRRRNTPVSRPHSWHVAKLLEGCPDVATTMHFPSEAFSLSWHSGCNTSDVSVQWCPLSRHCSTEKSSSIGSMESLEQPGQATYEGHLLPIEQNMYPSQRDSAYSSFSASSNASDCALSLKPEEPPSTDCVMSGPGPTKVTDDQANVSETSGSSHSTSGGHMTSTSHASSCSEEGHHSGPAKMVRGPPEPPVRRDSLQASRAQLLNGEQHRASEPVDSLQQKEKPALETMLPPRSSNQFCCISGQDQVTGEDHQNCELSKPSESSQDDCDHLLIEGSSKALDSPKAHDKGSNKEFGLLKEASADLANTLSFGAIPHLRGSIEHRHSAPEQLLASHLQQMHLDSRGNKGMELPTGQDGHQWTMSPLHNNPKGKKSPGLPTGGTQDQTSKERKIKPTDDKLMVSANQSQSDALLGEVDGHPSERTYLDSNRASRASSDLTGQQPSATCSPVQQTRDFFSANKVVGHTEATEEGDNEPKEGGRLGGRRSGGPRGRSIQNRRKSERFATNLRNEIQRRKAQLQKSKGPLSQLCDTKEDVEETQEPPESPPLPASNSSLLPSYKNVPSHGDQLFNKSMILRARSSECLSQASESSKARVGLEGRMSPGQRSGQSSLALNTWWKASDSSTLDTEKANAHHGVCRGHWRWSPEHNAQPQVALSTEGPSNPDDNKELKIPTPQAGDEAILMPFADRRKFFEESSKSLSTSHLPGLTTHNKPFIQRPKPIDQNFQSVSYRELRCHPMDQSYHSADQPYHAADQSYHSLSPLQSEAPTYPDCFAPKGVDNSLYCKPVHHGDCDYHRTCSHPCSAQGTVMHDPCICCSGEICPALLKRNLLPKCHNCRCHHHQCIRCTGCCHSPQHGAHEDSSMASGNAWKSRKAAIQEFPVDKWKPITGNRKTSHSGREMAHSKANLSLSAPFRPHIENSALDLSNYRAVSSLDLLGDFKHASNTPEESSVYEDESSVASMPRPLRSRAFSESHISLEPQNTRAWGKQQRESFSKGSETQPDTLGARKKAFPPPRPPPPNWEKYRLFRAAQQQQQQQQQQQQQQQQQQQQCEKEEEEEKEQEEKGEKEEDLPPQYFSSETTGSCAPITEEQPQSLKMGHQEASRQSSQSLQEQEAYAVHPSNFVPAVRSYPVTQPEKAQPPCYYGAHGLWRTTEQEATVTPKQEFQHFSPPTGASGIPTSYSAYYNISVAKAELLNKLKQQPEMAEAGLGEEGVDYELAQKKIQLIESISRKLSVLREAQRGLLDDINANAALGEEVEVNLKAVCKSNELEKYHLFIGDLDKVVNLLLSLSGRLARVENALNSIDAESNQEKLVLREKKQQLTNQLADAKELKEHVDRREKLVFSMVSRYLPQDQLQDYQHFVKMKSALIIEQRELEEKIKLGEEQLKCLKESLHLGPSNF

[5] = target: T4, GFP-Shrm4 (human) (UniProt Q9ULL8); assay: co-IP; lysates of transfected HEK293 cells; antibody to the tag of Shrm4 (HA, GFP, V5) at 4 °C overnight, protein A-agarose, western blot
T4 sequence: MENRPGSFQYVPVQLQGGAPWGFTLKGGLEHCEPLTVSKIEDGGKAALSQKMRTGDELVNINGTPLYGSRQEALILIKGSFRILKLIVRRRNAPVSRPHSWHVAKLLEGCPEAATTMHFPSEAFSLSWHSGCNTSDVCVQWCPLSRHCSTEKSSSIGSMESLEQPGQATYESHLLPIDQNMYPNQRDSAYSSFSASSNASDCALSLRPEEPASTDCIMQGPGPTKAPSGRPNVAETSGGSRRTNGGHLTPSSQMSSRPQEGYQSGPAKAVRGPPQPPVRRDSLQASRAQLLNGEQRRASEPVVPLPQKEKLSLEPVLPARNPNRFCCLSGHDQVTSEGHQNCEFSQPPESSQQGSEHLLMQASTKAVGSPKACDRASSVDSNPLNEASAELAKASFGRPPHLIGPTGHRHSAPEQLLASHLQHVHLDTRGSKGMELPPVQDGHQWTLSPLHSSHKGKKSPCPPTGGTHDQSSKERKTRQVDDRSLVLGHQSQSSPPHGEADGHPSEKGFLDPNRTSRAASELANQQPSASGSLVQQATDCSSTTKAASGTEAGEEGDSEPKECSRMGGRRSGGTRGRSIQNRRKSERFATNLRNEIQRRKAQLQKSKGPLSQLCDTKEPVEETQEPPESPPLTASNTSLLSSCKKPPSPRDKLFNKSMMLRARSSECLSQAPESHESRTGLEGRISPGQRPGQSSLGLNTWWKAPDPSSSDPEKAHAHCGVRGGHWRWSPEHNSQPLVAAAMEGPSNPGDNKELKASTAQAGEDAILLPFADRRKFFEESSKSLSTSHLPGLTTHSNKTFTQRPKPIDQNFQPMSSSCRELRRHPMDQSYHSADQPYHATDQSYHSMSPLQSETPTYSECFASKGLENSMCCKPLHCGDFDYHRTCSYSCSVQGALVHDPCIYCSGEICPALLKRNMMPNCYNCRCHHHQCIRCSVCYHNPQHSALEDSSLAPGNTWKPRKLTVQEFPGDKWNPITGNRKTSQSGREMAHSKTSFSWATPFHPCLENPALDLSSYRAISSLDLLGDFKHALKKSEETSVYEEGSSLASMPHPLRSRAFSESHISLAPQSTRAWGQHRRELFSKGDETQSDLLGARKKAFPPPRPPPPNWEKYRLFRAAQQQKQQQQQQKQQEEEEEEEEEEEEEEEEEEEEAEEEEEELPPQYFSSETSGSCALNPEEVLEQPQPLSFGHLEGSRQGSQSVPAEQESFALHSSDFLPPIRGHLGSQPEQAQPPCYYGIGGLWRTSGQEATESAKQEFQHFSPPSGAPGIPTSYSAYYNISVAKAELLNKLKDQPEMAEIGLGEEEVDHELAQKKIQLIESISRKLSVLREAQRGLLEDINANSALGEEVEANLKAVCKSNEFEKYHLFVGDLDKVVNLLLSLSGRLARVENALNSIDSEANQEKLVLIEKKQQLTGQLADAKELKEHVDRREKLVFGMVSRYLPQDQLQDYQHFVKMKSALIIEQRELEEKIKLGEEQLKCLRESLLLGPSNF

[6] = target: T5, Shrm4-V5 (human) (UniProt Q9ULL8); assay: as above
T5 sequence: T4 sequence

[7] = target: T6, HA-Shrm4 (human) (UniProt Q9ULL8); assay: as above
T6 sequence: T4 sequence

binding [1]: no binding
Molecule: GABAAR γ2 subunit, endogenous in brain (from UniProt P18508 39-466) (receptor)

binding [1]: binds
Molecule: GABAB1 (GABABR), endogenous in rat brain, isoform not told (from UniProt Q9Z0U4 20-960) (receptor)

binding [2]: binds
binding [3]: no binding
binding [4]: binds
Molecule: GABAB1a, endogenous in rat brain and cultured hippocampal neurons (from UniProt Q9Z0U4 20-960) (receptor)

binding [5]: no binding
Molecule: GABAB1a-Δ859–961 (from UniProt Q9UBS5 20-858) (domain or fragment)

binding [5]: binds
Molecule: GABAB1a-Δ870–961 (from UniProt Q9UBS5 20-869) (domain or fragment)

binding [5]: binds
Molecule: GABAB1a-Δ922–961 (from UniProt Q9UBS5 20-921) (domain or fragment)

binding [4]: no binding
Molecule: KIF5A, endogenous in rat brain (from UniProt Q6QLM7 1-1027)

binding [4]: no binding
Molecule: KIF5B, endogenous in rat brain (from UniProt Q2PQA9 1-963)

binding [4]: no binding
Molecule: KIF5C, endogenous in rat brain (from UniProt P56536 1-955)

binding [5]: binds
binding [6]: binds
Molecule: myc-tagged full-length GABAB1a (from UniProt Q9UBS5 20-961) (receptor)

binding [7]: no binding
B1: GABAB2-Flag (receptor, UniProt O75899 42-941)
chain: WARGAPRPPPSSPPLSIMGLMPLTKEVAKGSIGRGVLPAVELAIEQIRNESLLRPYFLDLRLYDTECDNAKGLKAFYDAIKYGPNHLMVFGGVCPSVTSIIAESLQGWNLVQLSFAATTPVLADKKKYPYFFRTVPSDNAVNPAILKLLKHYQWKRVGTLTQDVQRFSEVRNDLTGVLYGEDIEISDTESFSNDPCTSVKKLKGNDVRIILGQFDQNMAAKVFCCAYEENMYGSKYQWIIPGWYEPSWWEQVHTEANSSRCLRKNLLAAMEGYIGVDFEPLSSKQIKTISGKTPQQYEREYNNKRSGVGPSKFHGYAYDGIWVIAKTLQRAMETLHASSRHQRIQDFNYTDHTLGRIILNAMNETNFFGVTGQVVFRNGERMGTIKFTQFQDSREVKVGEYNAVADTLEIINDTIRFQGSEPPKDKTIILEQLRKISLPLYSILSALTILGMIMASAFLFFNIKNRNQKLIKMSSPYMNNLIILGGMLSYASIFLFGLDGSFVSEKTFETLCTVRTWILTVGYTTAFGAMFAKTWRVHAIFKNVKMKKKIIKDQKLLVIVGGMLLIDLCILICWQAVDPLRRTVEKYSMEPDPAGRDISIRPLLEHCENTHMTIWLGIVYAYKGLLMLFGCFLAWETRNVSIPALNDSKYIGMSVYNVGIMCIIGAAVSFLTRDQPNVQFCIVALVIIFCSTITLCLVFVPKLITLRTNPDAATQNRRFQFTQNQKKEDSKTSTSVTSVNQASTSRLEGLQSENHRLRMKITELDKDLEEVTMQLQDTPEKTTYIKQNHYQELNDILNLGNFTESTDGGKAILKNHLDQNPQLQWNTTEPSRTCKDPIEDINSPEHIQRRLSLQLPILHHAYLPSIGGVDASCVSPCVSPTASPRHRHVPPSFRVMVSGL
